Results are given in words; binding and its absence hold for the method and conditions named. For some of these results: Binding seen in cells or lysates may run through a third protein. Some results given as binding are weak or reduced against the parent protein; the word gives no strength. For some of these results: Where a sequence is shown, tags or fusion partners need not be part of it.

The target in assay [1] is T1, BYPASS1-LIKE (B1L), pGBKT7 two-hybrid bait (Arabidopsis thaliana) (UniProt Q9M9U5).
T1 sequence: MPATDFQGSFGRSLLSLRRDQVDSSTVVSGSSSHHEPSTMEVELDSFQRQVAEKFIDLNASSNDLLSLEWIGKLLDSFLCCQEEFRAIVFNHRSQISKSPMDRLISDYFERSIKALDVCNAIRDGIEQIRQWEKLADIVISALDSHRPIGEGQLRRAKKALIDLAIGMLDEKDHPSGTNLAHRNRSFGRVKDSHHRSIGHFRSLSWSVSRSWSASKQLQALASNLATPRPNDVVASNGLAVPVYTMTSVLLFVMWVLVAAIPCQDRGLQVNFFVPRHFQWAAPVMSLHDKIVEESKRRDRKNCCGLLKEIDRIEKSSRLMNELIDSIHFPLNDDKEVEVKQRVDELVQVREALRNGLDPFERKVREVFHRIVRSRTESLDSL
As to the kind of experiment: two-hybrid; directed assay: B1L and its variants in pGBKT7, 14-3-3 proteins in pGADT7, strain AH109, growth of serial decimal dilutions on selective media.

Assay [2] addresses T2, YFP^N-B1L (Arabidopsis thaliana) (UniProt Q9M9U5).
T2 sequence: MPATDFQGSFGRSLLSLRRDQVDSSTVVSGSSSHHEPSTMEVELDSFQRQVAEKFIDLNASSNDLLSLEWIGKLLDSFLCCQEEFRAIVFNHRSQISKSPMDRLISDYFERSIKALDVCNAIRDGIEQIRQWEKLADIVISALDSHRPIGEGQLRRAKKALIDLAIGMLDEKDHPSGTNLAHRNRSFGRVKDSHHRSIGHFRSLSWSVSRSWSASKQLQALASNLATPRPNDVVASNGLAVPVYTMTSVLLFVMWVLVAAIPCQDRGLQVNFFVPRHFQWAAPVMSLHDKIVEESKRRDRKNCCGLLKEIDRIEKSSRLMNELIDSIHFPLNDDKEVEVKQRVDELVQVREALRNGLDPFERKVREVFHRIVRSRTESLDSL
As to the kind of experiment: split reporter; BiFC in N. benthamiana leaves, YFP^N and YFP^C fusions, YFP signal by confocal microscopy two days after infiltration; plants pretreated with or without 4°C for 6 h.

Assay [3] deals with T3, YFP^N-B1L^S213D (Arabidopsis thaliana) (UniProt Q9M9U5).
T3 sequence: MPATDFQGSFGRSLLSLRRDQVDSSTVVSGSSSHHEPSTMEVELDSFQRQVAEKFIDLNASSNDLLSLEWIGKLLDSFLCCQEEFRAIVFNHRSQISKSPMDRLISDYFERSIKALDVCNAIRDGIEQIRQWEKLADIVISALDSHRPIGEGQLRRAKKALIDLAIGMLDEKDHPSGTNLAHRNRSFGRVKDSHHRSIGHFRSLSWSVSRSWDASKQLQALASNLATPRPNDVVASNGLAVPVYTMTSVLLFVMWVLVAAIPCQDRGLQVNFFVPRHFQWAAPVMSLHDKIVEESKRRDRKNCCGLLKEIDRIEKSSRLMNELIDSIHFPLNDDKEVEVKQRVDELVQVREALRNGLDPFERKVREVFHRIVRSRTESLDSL
The assay is described as above.

In assay [4] the target is T4, YFP^N-B1L^S213A (Arabidopsis thaliana) (UniProt Q9M9U5).
T4 sequence: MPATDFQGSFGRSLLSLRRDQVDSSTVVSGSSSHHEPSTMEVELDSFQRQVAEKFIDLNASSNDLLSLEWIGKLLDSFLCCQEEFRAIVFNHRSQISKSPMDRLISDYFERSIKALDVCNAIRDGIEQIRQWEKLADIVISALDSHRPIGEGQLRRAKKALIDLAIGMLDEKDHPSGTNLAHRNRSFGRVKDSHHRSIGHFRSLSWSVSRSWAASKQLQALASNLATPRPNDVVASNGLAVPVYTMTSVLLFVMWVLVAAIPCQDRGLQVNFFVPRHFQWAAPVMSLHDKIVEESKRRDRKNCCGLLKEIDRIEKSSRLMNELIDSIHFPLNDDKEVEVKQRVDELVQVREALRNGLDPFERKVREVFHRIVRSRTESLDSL
Described as above.

The target of assay [5] is T5, B1L-FLAG (Arabidopsis thaliana) (UniProt Q9M9U5).
T5 sequence: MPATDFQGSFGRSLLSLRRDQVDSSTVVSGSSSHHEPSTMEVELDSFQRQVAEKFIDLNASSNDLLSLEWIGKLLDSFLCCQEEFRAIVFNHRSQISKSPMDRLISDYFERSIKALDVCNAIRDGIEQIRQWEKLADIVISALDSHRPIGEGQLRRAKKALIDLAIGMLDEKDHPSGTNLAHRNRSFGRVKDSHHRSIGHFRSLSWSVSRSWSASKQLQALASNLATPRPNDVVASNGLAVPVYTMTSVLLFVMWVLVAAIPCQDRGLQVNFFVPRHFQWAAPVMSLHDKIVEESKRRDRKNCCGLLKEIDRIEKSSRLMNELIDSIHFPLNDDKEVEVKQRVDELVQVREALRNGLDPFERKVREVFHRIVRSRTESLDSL
As to the kind of experiment: co-IP; co-expressed in N. benthamiana leaves; total protein in IP buffer (50 mM Tris-HCl pH 7.6, 150 mM NaCl, 10% glycerol), anti-FLAG agarose overnight at 4°C, blot with anti-MYC and anti-FLAG.

The target of assay [6] is T6, B1L^S213D, pGBKT7 two-hybrid bait (Arabidopsis thaliana) (UniProt Q9M9U5).
T6 sequence: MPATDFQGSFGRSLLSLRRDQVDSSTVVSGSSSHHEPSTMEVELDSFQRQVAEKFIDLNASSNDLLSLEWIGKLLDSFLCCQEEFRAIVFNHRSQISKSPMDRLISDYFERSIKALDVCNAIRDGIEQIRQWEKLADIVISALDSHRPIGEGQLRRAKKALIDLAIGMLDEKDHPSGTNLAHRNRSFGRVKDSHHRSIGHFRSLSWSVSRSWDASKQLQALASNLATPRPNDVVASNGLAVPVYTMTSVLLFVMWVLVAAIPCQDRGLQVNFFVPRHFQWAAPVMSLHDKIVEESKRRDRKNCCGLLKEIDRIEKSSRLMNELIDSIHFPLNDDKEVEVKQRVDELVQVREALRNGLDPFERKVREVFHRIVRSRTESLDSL
As to the kind of experiment: two-hybrid; directed assay: B1L and its variants in pGBKT7, 14-3-3 proteins in pGADT7, strain AH109, growth of serial decimal dilutions on selective media.

For assay [7], the target named is T7, B1L-N terminal (amino acids 1-238), pGBKT7 two-hybrid bait (Arabidopsis thaliana) (UniProt Q9M9U5).
T7 sequence: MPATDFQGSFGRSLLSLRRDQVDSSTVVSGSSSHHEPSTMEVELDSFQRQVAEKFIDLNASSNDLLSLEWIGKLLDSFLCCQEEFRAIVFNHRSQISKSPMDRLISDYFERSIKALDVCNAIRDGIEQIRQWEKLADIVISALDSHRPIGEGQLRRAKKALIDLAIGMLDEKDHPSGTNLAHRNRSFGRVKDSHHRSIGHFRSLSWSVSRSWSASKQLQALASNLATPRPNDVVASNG
The assay is described as above.

Assay [8] deals with T8, B1L^S213A, pGBKT7 two-hybrid bait (Arabidopsis thaliana) (UniProt Q9M9U5).
T8 sequence: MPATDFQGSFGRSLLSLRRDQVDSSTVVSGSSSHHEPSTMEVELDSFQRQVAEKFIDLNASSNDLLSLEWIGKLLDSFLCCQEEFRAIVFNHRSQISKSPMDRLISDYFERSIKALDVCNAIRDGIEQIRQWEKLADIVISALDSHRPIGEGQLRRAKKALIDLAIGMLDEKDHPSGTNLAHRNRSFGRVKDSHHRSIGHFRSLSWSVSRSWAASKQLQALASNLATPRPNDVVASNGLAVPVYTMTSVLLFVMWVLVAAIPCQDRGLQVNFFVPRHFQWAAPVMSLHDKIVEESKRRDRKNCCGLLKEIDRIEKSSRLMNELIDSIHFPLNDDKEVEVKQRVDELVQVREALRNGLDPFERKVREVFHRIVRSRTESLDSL
The assay is described as above.

Assay [9] addresses T9, B1L-C terminal (amino acids 262-382), pGBKT7 two-hybrid bait (Arabidopsis thaliana) (UniProt Q9M9U5).
T9 sequence: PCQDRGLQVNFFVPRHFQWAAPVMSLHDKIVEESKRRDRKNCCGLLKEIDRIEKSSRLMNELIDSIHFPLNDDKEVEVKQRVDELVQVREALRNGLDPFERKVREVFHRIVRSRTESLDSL
The assay is described as above.

B1: 14-3-3ψ, pGADT7 two-hybrid prey (protein, UniProt P42644 1-255)
chain: MSTREENVYMAKLAEQAERYEEMVEFMEKVAKTVDVEELSVEERNLLSVAYKNVIGARRASWRIISSIEQKEESKGNEDHVAIIKDYRGKIESELSKICDGILNVLEAHLIPSASPAESKVFYLKMKGDYHRYLAEFKAGAERKEAAESTLVAYKSASDIATAELAPTHPIRLGLALNFSVFYYEILNSPDRACSLAKQAFDDAIAELDTLGEESYKDSTLIMQLLRDNLTLWTSDMTDEAGDEIKEASKPDGAE
Take B1: the binding entry in [1] is on record as “no binding”.

B2: YFP^C-14-3-3λ (protein, UniProt P48349 1-248)
chain: MAATLGRDQYVYMAKLAEQAERYEEMVQFMEQLVTGATPAEELTVEERNLLSVAYKNVIGSLRAAWRIVSSIEQKEESRKNDEHVSLVKDYRSKVESELSSVCSGILKLLDSHLIPSAGASESKVFYLKMKGDYHRYMAEFKSGDERKTAAEDTMLAYKAAQDIAAADMAPTHPIRLGLALNFSVFYYEILNSSDKACNMAKQAFEEAIAELDTLGEESYKDSTLIMQLLRDNLTLWTSDMQEQMDEA
With B2, the binding result in assay [2], in assay [3] and in [4] was “binds” each time.

B3: 14-3-3λ-MYC (protein, UniProt P48349 1-248)
chain: MAATLGRDQYVYMAKLAEQAERYEEMVQFMEQLVTGATPAEELTVEERNLLSVAYKNVIGSLRAAWRIVSSIEQKEESRKNDEHVSLVKDYRSKVESELSSVCSGILKLLDSHLIPSAGASESKVFYLKMKGDYHRYMAEFKSGDERKTAAEDTMLAYKAAQDIAAADMAPTHPIRLGLALNFSVFYYEILNSSDKACNMAKQAFEEAIAELDTLGEESYKDSTLIMQLLRDNLTLWTSDMQEQMDEA
Consider B3, for which, in [5], the binding result is “binds”.

B4: 14-3-3λ, pGADT7 two-hybrid prey (protein, UniProt P48349 1-248)
chain: MAATLGRDQYVYMAKLAEQAERYEEMVQFMEQLVTGATPAEELTVEERNLLSVAYKNVIGSLRAAWRIVSSIEQKEESRKNDEHVSLVKDYRSKVESELSSVCSGILKLLDSHLIPSAGASESKVFYLKMKGDYHRYMAEFKSGDERKTAAEDTMLAYKAAQDIAAADMAPTHPIRLGLALNFSVFYYEILNSSDKACNMAKQAFEEAIAELDTLGEESYKDSTLIMQLLRDNLTLWTSDMQEQMDEA
On to B4, for which the binding entry is “binds” in [6]; “binds” in assay [1]; “binds” in assay [7]; “binds” in [8]; “no binding” in [9].

The values are drawn from publication PMC6607965.
